32 sequences from paper PMC12820563, “FoxP3 forms a head-to-head dimer in vivo and stabilizes its multimerization on adjacent microsatellites” can be followed below.

This is one part of the list.

The target of this assay is T1, MBP-FoxP1dN (Mus musculus, UniProt P58462 326-579).
T1 sequence: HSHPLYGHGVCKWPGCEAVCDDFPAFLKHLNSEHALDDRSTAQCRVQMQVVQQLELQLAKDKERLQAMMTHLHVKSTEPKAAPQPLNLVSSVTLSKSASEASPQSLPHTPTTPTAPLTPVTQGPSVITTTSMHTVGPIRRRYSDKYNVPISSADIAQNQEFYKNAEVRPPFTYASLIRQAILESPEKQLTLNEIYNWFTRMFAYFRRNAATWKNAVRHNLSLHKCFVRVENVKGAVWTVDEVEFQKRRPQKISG
The assay can be described thus: PD-seq (MBP pull-down with sequencing); 20 mM Tris-HCl pH 7.5, 100 mM NaCl, 1.5 mM MgCl2, 0.4 uM protein, 0.1 uM dsDNA library, 30 min, room temperature, amylose pull-down; high values mean tight binding. To be noted: protein: recombinant; tags: His6-MBP; chain copies: 2; dsDNA, one strand shown. In a few lines:
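Mouse FoxP3 or FoxP1 fragment lacking the N-terminus, His6-MBP-tagged and expressed in E. coli, was incubated at 0.4 µM with 0.1 µM Klenow-filled degenerate double-stranded DNA library for 30 min at room temperature in Tris pH 7.5 buffer with NaCl and MgCl2. Complexes captured on amylose resin were washed three times and their DNA sequenced on Illumina. Binding is reads-per-million enrichment of pull-down over input, replicates pooled.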
For the sequence “GATGATTGTTCTCCCAGCTGATGAATTGACGCTATCGAGTAAACAAATTTTCCTAATCTTTCTGTTCAAGCGCCATCTAC”, the binding signal was 1.15 RPM ratio (pull-down/input).
Take “GATGATTGTTCTCCCAGCTGATGAATTTTAGCCTTCGAGTAAACAAATTTTCCTAATCTTTCTGTTCAAGCGCCATCTAC”: the binding signal was 0.931 RPM ratio (pull-down/input).
As for “GATGATTGTTCTCCCAGCTGATGAATTCAAGTATTCGAGTAAACAAATTTTCCTAATCTTTCTGTTCAAGCGCCATCTAC”, the figure is 1.06 RPM ratio (pull-down/input); as for “GATGATTGTTCTCCCAGCTGATGAATTATCGCAATCGAGTAAACAAATTTTCCTAATCTTTCTGTTCAAGCGCCATCTAC”, 1.35 RPM ratio (pull-down/input).
As to “GATGATTGTTCTCCCAGCTGATGAATTATAGAGGTCGAGTAAACAAATTTTCCTAATCTTTCTGTTCAAGCGCCATCTAC”, the binding signal is 0.854 RPM ratio (pull-down/input).
“GATGATTGTTCTCCCAGCTGATGAATTGAATCGCTCGAGTAAACAAATTTTCCTAATCTTTCTGTTCAAGCGCCATCTAC”: the binding signal was 0.784 RPM ratio (pull-down/input).
With “GATGATTGTTCTCCCAGCTGATGAATTCGCAGTCTCGAGTAAACAAATTTTCCTAATCTTTCTGTTCAAGCGCCATCTAC”, the binding signal is 0.812 RPM ratio (pull-down/input).
Regarding “GATGATTGTTCTCCCAGCTGATGAATTTACACGTTCGAGTAAACAAATTTTCCTAATCTTTCTGTTCAAGCGCCATCTAC”, the binding signal is 1.32 RPM ratio (pull-down/input).
For “GATGATTGTTCTCCCAGCTGATGAATTAATGCTATCGAGTAAACAAATTTTCCTAATCTTTCTGTTCAAGCGCCATCTAC”, the binding signal is 1.38 RPM ratio (pull-down/input).
The value for “GATGATTGTTCTCCCAGCTGATGAATTTCGGATTTCGAGTAAACAAATTTTCCTAATCTTTCTGTTCAAGCGCCATCTAC” was 0.834 RPM ratio (pull-down/input).
“GATGATTGTTCTCCCAGCTGATGAATTAAGATTCTCGAGTAAACAAATTTTCCTAATCTTTCTGTTCAAGCGCCATCTAC”: the binding signal is 0.789 RPM ratio (pull-down/input).
Regarding “GATGATTGTTCTCCCAGCTGATGAATTAGAATGTTCGAGTAAACAAATTTTCCTAATCTTTCTGTTCAAGCGCCATCTAC”, the binding signal is 0.908 RPM ratio (pull-down/input).
On to “GATGATTGTTCTCCCAGCTGATGAATTGGACACGTCGAGTAAACAAATTTTCCTAATCTTTCTGTTCAAGCGCCATCTAC”, for which the binding signal was 0.927 RPM ratio (pull-down/input).
The value for “GATGATTGTTCTCCCAGCTGATGAATTCGCCGCCTCGAGTAAACAAATTTTCCTAATCTTTCTGTTCAAGCGCCATCTAC” was 0.826 RPM ratio (pull-down/input).
The value for “GATGATTGTTCTCCCAGCTGATGAATTTGTAGCTTCGAGTAAACAAATTTTCCTAATCTTTCTGTTCAAGCGCCATCTAC” was 1.07 RPM ratio (pull-down/input); that for “GATGATTGTTCTCCCAGCTGATGAATTCAGGCTTTCGAGTAAACAAATTTTCCTAATCTTTCTGTTCAAGCGCCATCTAC” was 0.856 RPM ratio (pull-down/input).
The value for “GATGATTGTTCTCCCAGCTGATGAATTGGTGTTGTCGAGTAAACAAATTTTCCTAATCTTTCTGTTCAAGCGCCATCTAC” was 2.78 RPM ratio (pull-down/input).
Regarding “GATGATTGTTCTCCCAGCTGATGAATTAATGGCTTCGAGTAAACAAATTTTCCTAATCTTTCTGTTCAAGCGCCATCTAC”, the binding signal is 0.902 RPM ratio (pull-down/input).
Regarding “GATGATTGTTCTCCCAGCTGATGAATTTTGAGGATCGAGTAAACAAATTTTCCTAATCTTTCTGTTCAAGCGCCATCTAC”, the binding signal was 0.856 RPM ratio (pull-down/input).
As for “GATGATTGTTCTCCCAGCTGATGAATTTCCGCTCTCGAGTAAACAAATTTTCCTAATCTTTCTGTTCAAGCGCCATCTAC”, the figure is 0.747 RPM ratio (pull-down/input).
The value for “GATGATTGTTCTCCCAGCTGATGAATTGGCAACTTCGAGTAAACAAATTTTCCTAATCTTTCTGTTCAAGCGCCATCTAC” was 0.976 RPM ratio (pull-down/input).
As for “GATGATTGTTCTCCCAGCTGATGAATTATTATGCTCGAGTAAACAAATTTTCCTAATCTTTCTGTTCAAGCGCCATCTAC”, the figure is 1.24 RPM ratio (pull-down/input).
For the sequence “GATGATTGTTCTCCCAGCTGATGAATTCAGCACGTCGAGTAAACAAATTTTCCTAATCTTTCTGTTCAAGCGCCATCTAC”, the binding signal is 0.901 RPM ratio (pull-down/input).
The value for “GATGATTGTTCTCCCAGCTGATGAATTGTGACGCTCGAGTAAACAAATTTTCCTAATCTTTCTGTTCAAGCGCCATCTAC” was 1.11 RPM ratio (pull-down/input); that for “GATGATTGTTCTCCCAGCTGATGAATTTGTGATATCGAGTAAACAAATTTTCCTAATCTTTCTGTTCAAGCGCCATCTAC” was 1.32 RPM ratio (pull-down/input).
The value for “GATGATTGTTCTCCCAGCTGATGAATTCATACTCTCGAGTAAACAAATTTTCCTAATCTTTCTGTTCAAGCGCCATCTAC” was 0.919 RPM ratio (pull-down/input); that for “GATGATTGTTCTCCCAGCTGATGAATTTTCTCATTCGAGTAAACAAATTTTCCTAATCTTTCTGTTCAAGCGCCATCTAC” was 0.963 RPM ratio (pull-down/input); that for “GATGATTGTTCTCCCAGCTGATGAATTAAAGTTTTCGAGTAAACAAATTTTCCTAATCTTTCTGTTCAAGCGCCATCTAC” was 1.28 RPM ratio (pull-down/input).
As for “GATGATTGTTCTCCCAGCTGATGAATTGACTATCTCGAGTAAACAAATTTTCCTAATCTTTCTGTTCAAGCGCCATCTAC”, the figure is 1.1 RPM ratio (pull-down/input); as for “GATGATTGTTCTCCCAGCTGATGAATTACTCATATCGAGTAAACAAATTTTCCTAATCTTTCTGTTCAAGCGCCATCTAC”, 1.17 RPM ratio (pull-down/input); as for “GATGATTGTTCTCCCAGCTGATGAATTCGAACTATCGAGTAAACAAATTTTCCTAATCTTTCTGTTCAAGCGCCATCTAC”, 1.02 RPM ratio (pull-down/input).
Regarding “GATGATTGTTCTCCCAGCTGATGAATTTTCGCAGTCGAGTAAACAAATTTTCCTAATCTTTCTGTTCAAGCGCCATCTAC”, the binding signal is 0.974 RPM ratio (pull-down/input).
